# Laboratory results: PubChem BioAssay AID485281 (National Center for Advancing Translational Sciences (NCATS), 2010)
# Hit rate of the full screen: of about 350,000 compounds, about 260 (0.074%) were called active. This list was built around the results that the source calls inconclusive (neither active nor inactive); the mix of calls is not that of the screen. Calls follow the shape of the dose curve; as a rule, active = well fitted inhibition curve with a large enough effect; inconclusive = small, poorly fitted or top-dose-only effect; inactive = no such curve, though single readings can be large or run the other way. A potency beside an inconclusive call is a rough fit, not a confirmed value.
# Target: Ferritin light chain (Equus caballus) (UniProt P02791)
# Chain of UniProt P02791 (P02791 whole entry, looked up): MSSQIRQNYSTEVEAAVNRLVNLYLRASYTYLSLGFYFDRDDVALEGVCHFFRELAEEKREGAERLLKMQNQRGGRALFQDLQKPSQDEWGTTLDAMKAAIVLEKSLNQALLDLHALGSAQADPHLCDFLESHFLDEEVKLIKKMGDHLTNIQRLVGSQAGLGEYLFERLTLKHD
# Experiment: qHTS Assay for Identification of Novel General Anesthetics; also: nearly all actives have a fitted effect of over 20% in size
# Details: apoferritin/1-aminoanthracene competitive binding, fluorescence; activity change, negative = displacement: at 77.5 µM (top of the series)
# How it was run: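 10 uM apoferritin + 50% sat. 1-AMA, PBS; cpd 10 min RT; Ex380/Em535 endpoint; normalized to free probe vs complex; 4-param Hill fit; propofol titration as pos. ctrl.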
# % is scaled to controls: 0 for no effect and ±100 for the full control effect; potency is read from the fitted curve at half-maximal effect; tags tell the direction and shape of the fitted curve.
SMILES,Potency,"activity change, negative = displacement"
O=C(CC12CC3CC(CC(Br)(C3)C1)C2)NC1CCCC1,inactive,
CC(C)(C)c1cccc(OCCCSc2ncccn2)c1,"inconclusive: 31.6 µM [inhibitor, partial curve]",
CC1=CN2C(=N)/C(=C/c3ccc([N+](=O)[O-])o3)C(=O)N=C2S1,inactive,
Cc1cc2ccccn2c1C(=O)c1ccc([N+](=O)[O-])cc1[N+](=O)[O-],inactive,
CC(C)CCN(Cc1ccco1)C(=O)c1cc2c(Cl)nc3ccccc3c2s1,"inconclusive: 11.2 µM [inhibitor, partial curve]",
O=C(NNc1ccccc1C(F)(F)F)c1sccc1Br,inactive,
OCc1c(OCc2cccc(F)c2)ccc2ccccc12,"inconclusive: 39.8 µM [inhibitor, partial curve]",
COc1cc(/C=N/NC(=S)NCc2ccco2)cc(OC)c1OC,"inconclusive: 35.5 µM [inhibitor, partial curve]",
CCOc1ccc(C2Nc3ccccc3-c3nnc(SCc4ccccc4)nc3O2)cc1OC (stereo not drawn),"inconclusive: 35.5 µM [inhibitor, single point]",
CCOc1ccc(CC(=O)N2CCN=C2SCc2ccc([N+](=O)[O-])cc2)cc1,"inconclusive: 12.6 µM [inhibitor, partial curve]",
OC1(c2cccc(C(F)(F)F)c2)CCN(Cc2nc(-c3cnccn3)no2)CC1,"inconclusive: 22.4 µM [inhibitor, partial curve]",
Cc1cc2oc3c(c(=O)c2cc1C)C(c1ccc(C(C)C)cc1)N(CCCN1CCOCC1)C3=O (stereo not drawn),"inconclusive: 15.8 µM [inhibitor, partial curve]",
CCCOc1ccc(-c2nn(-c3ccccc3)cc2C2NC(=O)NC(C)=C2C(=O)OC)cc1C (stereo not drawn),inactive,
O=C(O)C1C2C=CC(C2)C1C(=O)Nc1ccc2c(c1)OCCO2 (stereo not drawn),"inconclusive: 25.1 µM [inhibitor, partial curve]",
CC(=O)c1ccc(N2CCCC2)c(F)c1,"inconclusive: 28.2 µM [inhibitor, partial curve]",
O=C(Nc1ccc(N2C(=O)C3CCCCC3C2=O)cc1Cl)c1cccs1 (stereo not drawn),"inconclusive: 11.2 µM [inhibitor, partial curve]",
CC(C)(C)NCC(=O)N/N=C/c1ccc(OCc2ccccc2)cc1,"inconclusive: 35.5 µM [inhibitor, single point]",
CC(=O)C(C(C)=O)c1c(Cl)c(O)c(O)c2c(C(=O)c3ccccc3)coc12,"inconclusive: 31.6 µM [inhibitor, partial curve]",
COC(CNC(=O)Cn1nc(Cc2ccncc2)c2ccccc2c1=O)OC,inactive,
COc1cc(Cl)c(C)cc1NC(=O)CSc1ncc(S(=O)(=O)c2ccc(C(C)(C)C)cc2)c(=O)[nH]1,"inconclusive: 15.8 µM [inhibitor, partial curve]",
O=C1Nc2ccc(S(=O)(=O)Nc3ccccc3O)c3cccc1c23,"inconclusive: 22.4 µM [inhibitor, partial curve]",
Cc1nnc2sc(SCC(=O)Nc3nccs3)nn2c1=O,inactive,
NNC(=O)c1cccc(COc2ccc3c(c2)CCC3)c1,"inconclusive: 25.1 µM [inhibitor, partial curve]",

SMILES,Potency,"activity change, negative = displacement"
OCCN(/C=N/c1nc(-c2ccc(Br)cc2)cs1)CCO,"inconclusive: 31.6 µM [inhibitor, partial curve]",
CC1CN(S(=O)(=O)c2cccc(C(=O)NCc3ccc4c(c3)OCO4)c2)CC(C)O1 (stereo not drawn),"inconclusive: 25.1 µM [inhibitor, partial curve]",
O=C(N/N=C/c1ccncc1)c1cc(-c2ccc(Br)s2)[nH]n1,"inconclusive: 35.5 µM [inhibitor, single point]",
CCC1CSC(Nc2ccc(C(=O)/C=C/c3ccc(Br)cc3)cc2)=N1 (stereo not drawn),"inconclusive: 39.8 µM [inhibitor, partial curve]",
O=C(CCNc1cccc(C(F)(F)F)c1)c1ccco1,"inconclusive: 31.6 µM [inhibitor, partial curve]",
O=C(CNC(=O)c1sc2ccccc2c1Cl)NCc1cccnc1,"inconclusive: 25.1 µM [inhibitor, partial curve]",
Cc1ccc(NC(=O)CSc2nc3c([nH]c4ccccc43)c(=O)n2-c2ccccc2)c(C)c1,inactive,
O=C(NC(=S)NCc1ccccc1)c1ccccc1Br,"inconclusive: 39.8 µM [inhibitor, single point]",
CCCCc1ccc(NC(=O)NCc2cccnc2)cc1,"inconclusive: 20 µM [inhibitor, partial curve]",
COc1cccc(-n2cc(C(=O)NCc3cccc(Cl)c3)c3ccccc3c2=O)c1,"inconclusive: 56.2 µM [inhibitor, single point]",
O=C(Nc1ccc2c(c1)CCC2)c1ccc(Br)s1,"inconclusive: 5.62 µM [inhibitor, partial curve]",
COc1ccccc1C1=NNC(=Nc2cccc(S(=O)(=O)N(C)C)c2)SC1,inactive,
Cc1ccc2nc(C)cc(C(=O)OCC(=O)c3ccc(Cl)c([N+](=O)[O-])c3)c2c1,"inconclusive: 35.5 µM [inhibitor, partial curve]",
COc1ccccc1/C=C/C(=O)c1ccccc1,"inconclusive: 20 µM [inhibitor, partial curve]",
CC1CC1c1ccc(/C=C(\C#N)C(=O)Nc2ccc(Cl)cc2)o1 (stereo not drawn),inactive,
COc1ccccc1N1CCN(CC(O)COc2cc(C)cc(C)c2)CC1 (stereo not drawn),inactive,
O=C(O)CCC(=O)N1CCc2cc(S(=O)(=O)N3CC=C(c4ccccc4)CC3)ccc21,"inconclusive: 44.7 µM [inhibitor, single point]",
O=S(=O)(c1ccc(NCC2CCCCC2)nc1)N1CCOCC1,"inconclusive: 25.1 µM [inhibitor, partial curve]",
O=C1C2CC=CCC2C(=O)N1Cc1ccccc1Cl (stereo not drawn),"inconclusive: 12.6 µM [inhibitor, partial curve]",
Cc1cccc(OCc2nnc(SCC(=O)N3CC(=O)Nc4ccccc43)o2)c1,"inconclusive: 35.5 µM [inhibitor, single point]",
CCCCCOC(=O)c1ccc(NC(=O)c2cccc(NC(=O)c3ccccc3C(=O)O)c2)cc1,"inconclusive: 50.1 µM [inhibitor, single point]",
COc1cc(C)c(NC(=S)Nc2ccc(Cl)c(Cl)c2)cc1OC,"inconclusive: 44.7 µM [inhibitor, single point]",
O=C(COC(=O)c1ccccc1C(=O)c1ccc(Cl)c([N+](=O)[O-])c1)NC1CCCCCC1,"inconclusive: 28.2 µM [inhibitor, partial curve]",

SMILES,Potency,"activity change, negative = displacement"
CCCCN1C(=O)C2(NNc3ccccc3O2)c2ccccc21 (stereo not drawn),"inconclusive: 56.2 µM [inhibitor, partial curve]",
COc1ccc(CCSc2nnc(C3CCCCC3)n2N)cc1,"inconclusive: 25.1 µM [inhibitor, partial curve]",
COc1ccc(CC(=O)OCC(=O)N2CCCC(C)C2)cc1 (stereo not drawn),"inconclusive: 50.1 µM [inhibitor, single point]",
CCCCN(C(=O)C(C)Oc1ccc(Br)cc1)c1c(N)n(Cc2ccccc2)c(=O)[nH]c1=O (stereo not drawn),inactive,
Cc1ccc(N(C(=O)CCC(=O)Nc2cc(C)on2)C(C(=O)NC2CCCC2)c2ccncc2)cc1 (stereo not drawn),"inconclusive: 35.5 µM [inhibitor, partial curve]",
CCn1cc(C(=O)N2CCN(c3cc(C)ccc3C)CC2)c(=O)c2cc(S(=O)(=O)N(C)C3CCCCC3)ccc21,"inconclusive: 3.98 µM [inhibitor, full curve, poor fit]",
CC(=O)N1CC(c2ccccc2)C(c2ccc(Cl)cc2)=N1 (stereo not drawn),inactive,
CC1(C(=O)Nc2ccc3c(c2)OCO3)CC1(Cl)Cl (stereo not drawn),"inconclusive: 28.2 µM [inhibitor, partial curve]",
O=C(O)CCCCCCCCCCCc1ccccc1,"inconclusive: 14.1 µM [inhibitor, partial curve]",
CNC(=O)COC(=O)/C=C/c1nc2ccccc2s1,inactive,
Cc1cccc(NS(=O)(=O)c2cccs2)n1,inactive,
COc1ccc(C2=NN(CC(=O)NCCCN(C)c3ccccc3)C(=O)CC2)cc1,"inconclusive: 3.16 µM [inhibitor, full curve]",
COC(=O)c1ccc(/C=C(\C#N)C(=O)NC(C)c2ccccc2)cc1 (stereo not drawn),inactive,
CC(C)CNc1nnnc2c1sc1nc(N3CCOCC3)c3c(c12)CC(C)(C)SC3,"inconclusive: 39.8 µM [inhibitor, partial curve]",
O=[N+]([O-])c1ccccc1S(=O)(=O)NCCSc1ccccc1,"inconclusive: 28.2 µM [inhibitor, partial curve]",
N#CC(=C(/N)Sc1ccccc1N)/C(C#N)=C(\N)Sc1ccccc1N,"inconclusive: 31.6 µM [inhibitor, single point]",
Cc1ccc(S(=O)(=O)N2CCN(C(=O)c3ccc(N4CCCCC4)c([N+](=O)[O-])c3)CC2)cc1,"inconclusive: 56.2 µM [inhibitor, single point]",
Clc1ccc(-c2cn3nc4c(nc3n2)CCCC4)cc1,inactive,
CCCNC(=O)c1cc(-c2ccco2)on1,inactive,
Cc1cc(Cl)ccc1OCc1nc(-c2ccncc2)no1,"inconclusive: 28.2 µM [inhibitor, single point]",
O=c1n(Cc2cc3c(cc2Cl)OCO3)c(=O)n2n1CC[C@H]1/C(=N\OC[C@@H](O)COCc3ccco3)[C@H]3O[C@@H]3[C@@H](O)[C@@H]12,,inactive: -0.683% [at 15.3 µM]
NC(N)=NCCC[C@H](NC(=O)CC1(CC(=O)N2CCN(C3c4ccccc4NC(=O)c4ccccc43)CC2)CCCC1)C(=O)NCCn1c(=O)n(-c2ccccc2)n(-c2ccccc2)c1=O (stereo partly drawn),"inconclusive: 28.2 µM [inhibitor, partial curve]",
